Measurements taken from PubChem BioAssay AID662 (National Center for Advancing Translational Sciences (NCATS), 2007).
The whole screen tested about 71,000 compounds, of which about 1,800 (2.5%) were called active. The inconclusive results got no clear call from the source; some entries with a clear call stand among them for comparison. The call rests on the fitted dose curve; in most records, active means well fitted activation curve with a large enough effect in the signal ratio, with a control signal flat (not every such curve was filed as active); inconclusive means small, poorly fitted or top-dose-only effect, or effect the other way, or a change in a side signal; inactive means flat fitted curve, though single readings scatter; the % refers to the signal ratio. A potency beside an inconclusive call is a rough fit, not a confirmed value.

Assay: Cell signaling CRE-BLA (Fsk stim); on activity change, negative = inhibition: % of control where 0% means no effect
Details: CHO CRE-bla reporter (cAMP response element driving beta-lactamase), forskolin EC10, beta-lactamase ratio; activity change, negative = inhibition: at 38.2 µM (top of the series) unless noted
Procedure, shortened: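 CRE-bla CHO cells stimulated with EC10 NKH 477 (water-soluble forskolin) and compound titrations, 3 h at 37C; beta-lactamase read with CCF4 after 2 h at room temperature. Activity from 460/530 nm emission ratio, AC50 values for positive or negative modulation.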
Potency means the concentration at half of the fitted maximal effect; tags describe the fitted curve by direction and shape.

**Q.** For `CCNc1cc2oc(=O)c(CN3CCOCC3)c(C)c2cc1C`, which Potency is on record?
**A.** inconclusive: 3.16 µM [rising, partial curve]

**Q.** Which Potency does the source give for `O=C1CC(N2CCN(c3ccc(Cl)c(Cl)c3)CC2)C(=O)N1` (configuration not stated) here?
**A.** inconclusive: 5.01 µM [rising, single point]

**Q.** Which Potency does the source give for `Cc1cc(C(=O)OCC(=O)Nc2ccc(F)cc2F)c(C)o1` here?
**A.** inconclusive: 5.01 µM [falling, single point]

**Q.** With `CCn1c2ccccc2c2cc(N)ccc21` as the compound, how does the Potency read?
**A.** inactive

**Q.** Which activity change, negative = inhibition does the source give for `COC(=O)c1cc(=O)n(Cc2ccco2)c(=Nc2ccc(F)c(Cl)c2)s1` here?
**A.** inconclusive: -2.58% [cytotoxic]

**Q.** With `O=S(=O)(c1ccc(Cl)c(F)c1)N1CCC(c2nc(-c3ccncc3)no2)CC1` as the compound, how does the Potency read?
**A.** inconclusive: 25.1 µM [falling, single point]

**Q.** For `COc1ccc(Oc2ncc3nc(-c4cn(C)c5ccccc45)c(=O)n(C)c3n2)cc1`, which Potency is on record?
**A.** inconclusive: 0.398 µM [rising, full curve]

**Q.** For `CCN(C(=O)c1cn(C)c(=O)c2cc(OC)c(OC)cc12)c1cc(C)ccc1C`, which activity change, negative = inhibition is on record?
**A.** inconclusive: 18.7%

**Q.** Which Potency does the source give for `O=C1CC(c2ccccc2)Cc2nc(N3CCc4ccccc43)ncc21` (configuration not stated) here?
**A.** inconclusive: 12.6 µM [rising, single point]

**Q.** For `COc1ccc(NC(=O)N2CCN(c3nc(-c4cccc(OC)c4)cs3)CC2)cc1`, which activity change, negative = inhibition is on record?
**A.** inconclusive: -17.4%

**Q.** With `Cc1c(C2N3CC4(C)CN2CC(C)(C3)C4=O)c2ccccc2n1C` (configuration not stated) as the compound, how does the Potency read?
**A.** inconclusive: 5.01 µM [rising, single point]

**Q.** With `CC1CCN(S(=O)(=O)c2ccc(Br)s2)CC1` as the compound, how does the Potency read?
**A.** inactive

**Q.** For `O=c1c(-c2ccc(F)c(F)c2)nc2cncnc2n1Cc1ccccc1Cl`, which Potency is on record?
**A.** inconclusive: 12.6 µM [rising, partial curve]

**Q.** For `FC(F)(F)c1cc(CO[C@H]2CCCN[C@H]2c2ccccc2)cc(C(F)(F)F)c1`, which activity change, negative = inhibition is on record?
**A.** inconclusive: -28.8%

**Q.** For `COc1ccc(NC2c3ccccc3C(=O)N2c2cccnc2)cc1Cl` (configuration not stated), which Potency is on record?
**A.** inactive

**Q.** With `CCn1cc(C(=O)NCC2CCCO2)c(=O)c2cc(S(=O)(=O)N(C)C3CCCCC3)ccc21` (configuration not stated) as the compound, how does the Potency read?
**A.** inactive

**Q.** With `COc1ccc2nc(NC(=O)c3cnccn3)sc2c1` as the compound, how does the Potency read?
**A.** inactive

**Q.** For `Cn1c(=O)c2c(nc(NC3CCCCC3)n2Cc2ccccc2)n(C)c1=O`, which Potency is on record?
**A.** active: 10 µM

**Q.** With `C(=C/c1ccccc1)/CN1CCN(C(c2ccccc2)c2ccccc2)CC1` as the compound, how does the activity change, negative = inhibition read?
**A.** inconclusive: 2.64%

**Q.** For `Cc1cc(=O)oc2cc3c(cc12)OCCO3`, which Potency is on record?
**A.** inactive

**Q.** With `Cn1c2ccccc2c2ncn(CCC3=CCCCC3)c(=O)c21` as the compound, how does the activity change, negative = inhibition read?
**A.** inconclusive: 29.4%

**Q.** With `COCCCNC(=O)c1cc2c(=O)n(C)c3ccccc3c2n1C` as the compound, how does the Potency read?
**A.** inconclusive: 7.94 µM [rising, partial curve]
